# Reference: the supplement of paper PMC11417369
# Some of the results follow.
# Tested on: PfAP2-HC AP2 domain (GST-tagged)
# Assay: gcPBM binding intensity (ln(normalized median fluorescence intensity)); higher = stronger DNA binding
# Procedure, shortened: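 In this array assay, P. falciparum DNA-binding domains with a GST tag, expressed in E. coli, were applied for 1 h to primer-extended double-stranded 36-bp intergenic genomic probes and negative controls on an Agilent 4 × 180k array. Bound protein was visualised with Alexa488 anti-GST antibody at 488 nm. Binding intensity is the highest Masliner-normalised natural-log median intensity across replicate spots of either probe orientation.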
row,Sequence,gcPBM binding intensity (ln)
1,ATCATTTTTTATGCGTGTACATAAATTTATTAGGTT [XGTACX_site2786],9.92
2,TAATTATTACACGGTATTATATATAATATGTTAAAA [GTGCAC_negctrl_site134],9.48
3,TTTTTTGTTAAACCGGTGCATATAAATATATATATA [GTGCAC_site9989],9.56
4,CACAAAAAAGTTCATACACACAACATATTTATATAT [CACACA_site2887],10.1
5,TAACAAAACATAGATTGTACATATTATAAATGTATA [XGTACX_site1543],9.75
6,GTTACATACCTATACACACACATATATAAATAAATA [CACACA_site6549],10.3
7,TATTCTTATCTTACCACACACAATGTACGAAAAGAT [CACACA_site6296],9.83
8,ATATAAAAATACAGGTGTACATTTTTTCATATTTAT [XGTACX_site6959],9.75
9,TTTCCCATAGGAAAAACACACATATATTATATATAA [CACACA_site1981],9.5
10,CAATATTATATTACTTGTACACATATGTAGTTTCGA [XGTACX_site8945],9.68
11,CAAAATATACACACGTGTACACAAATATTTACAAAA [XGTACX_site2257],9.99
12,TTATGTCGTAAATACACACATACATATACATACACA [CACACA_site1374],9.85
13,TTGTCACTAATAGATGCATGCAATCATTCCATTTTT [TGCATGCA_site938],9.7
14,TTGTAATGATATATTTGTACTTAATATAATTGTATA [XGTACX_site2748],9.59
15,AATAAATTGAAACACACACACACATATATATATATA [CACACA_site848],11.2
16,TTTATTGCTCTATATGCACACCTTAATTCTTCATTT [CACACA_site8682],9.99
17,GAAGATTTATCTTGCACACGCAAAAAAAAAAAAAAA [CACACA_site154],9.67
18,GAAAATATTTCTATCTGTACTTATTTATATATATAT [XGTACX_site7317],9.73
19,TACGTAAATTCTAATACACACTATAGGATATTCTGC [CACACA_site7248],9.65

row,Sequence,gcPBM binding intensity (ln)
1,AAAAATAATCATAGTAGTACAAAAAAAAAAAAAAAA [XGTACX_site3736],9.27
2,ATGTACTATGATAATGCATGCAATAATACATTTTTA [TGCATGCA_site318],9.6
3,TTATTATGTATATATGCACACAATACCCAAAACAAC [CACACA_site80],10
4,TAATATATATATAATACACACTATTTTAATCACATA [CACACA_site4849],9.63
5,TTTTTCAATTGTAGTGGTACAGATATAATTATCTCT [XGTACX_site5500],9.57
6,TTTTTATGAAAATAAACACACGATTTATTATATATA [CACACA_site1311],9.42
7,TTCTATATATTATATGCATGTAAAACATATTAAAAT [TGCATGCA_site662],9.52
8,TGCATGTAATTTTTGTGTCCACATAAAATATTTAAT [XGTACX_site5652],9.57
9,AGAACGACTAAGCAGTGTACATTTTGTATATACAAT [XGTACX_site2831],9.72
10,TTACATACATACAAGTGTACGCATATATTAATATTA [XGTACX_site4006],9.64
11,ATATGTACAAGTTATACACACATGTACAGTTATATA [CACACA_site6706],9.83
12,TTTAACATTTCAGATGTGCACATTTTCCGAACCAGT,9.76
13,ATAATGAAGACTTTTTTACACACTTCATATATTATA [CACACA_site8630],9.8
14,TGATATTTTTCCATAGTGCAAAATATAGTAATGTAT,9.63
15,AAAGAACTTAATGCTGCACACAAAAAAAAGGAAAAA [CACACA_site8375],10.1
16,AAATTGTTAAAAAGAAGTACATTCTTTTATTTCTTA [XGTACX_site540],9.36
17,TAAATGTGTATATATTGTACAAATATTAATACATAC [XGTACX_site8102],9.74
18,AGAAAAAAACGGTACAGTACACATAAACTAATTATT [XGTACX_site8617],9.84
19,TATTATATATGGAAGTAATAATATATATATATATAT [GTGCAC_negctrl_site63],9.53

row,Sequence,gcPBM binding intensity (ln)
1,ACAAACTAAAAAAGAAGTACAAATCGTATTAATAAT [XGTACX_site8684],9.76
2,TTTTTTGAAAATAAAAGTACAAATTTTATATTTAAA [XGTACX_site2758],9.18
3,CCAACATAGAGGGGCACACACATATATACATAAAAA [CACACA_site1847],10
4,AGTATACATATATATACACACACATATATATATATA [CACACA_site7883],9.87
5,CTTATATGAAGCCTCTTTATTCATAAATAAGAATAA [TGCATGCA_negctrl_site120],9.23
6,AAACAACATGGACACGCACACACAAAAAAAGCATGC [CACACA_site73],10.7
7,TTAACAAAATTTCCGTGTACGTAAATAAGAACATAG [XGTACX_site7200],9.63
8,GATTAAATTTGACACTGTACAAAAAATAAAATGAGG [XGTACX_site504],9.75
9,GTTAATTCATTAAGGACACACAAAAAAAAAAAAAAA [CACACA_site998],9.61
10,ATGAATATAAAATATACACACTTATATATTGAATGA [CACACA_site4274],9.74
11,AAAAAATTCAAAATCACACATAAAAAAGGACACATA [CACACA_site5972],9.86
12,TCATATTATAAAAAATGTACAAGGAAAAAATATATA [XGTACX_site337],9.74
13,TAATTTTGTAAAAATTGTACATATTTATCTTTTTAT [XGTACX_site4305],9.65
14,ACATTATATAAAATATGTACACATAAATAAATAAAT [XGTACX_site5031],9.92
15,AAAAAAAAAAAAAACACACACATATAATATATTTAA [CACACA_site1337],10.3
16,CCTACAATTCGTAATACACACACATATATATATATA [CACACA_site9251],9.94
17,TTTTTTTTTTACTTCACACATATACATTTATATTTA [CACACA_site4385],9.76
18,TAAACATACAGATACACACACACACCCACAGAGACA [CACACA_site4429],10.6
19,AGAATCACCAAATATGTACACACCTTAACATGTTTA [CACACA_site2068],9.95
